Laboratory results reported in PubChem BioAssay AID504832 (National Center for Advancing Translational Sciences (NCATS), 2011).
In all, about 310,000 compounds went through this assay and about 18,000 (5.8%) were called active. The shares of active, inactive and inconclusive entries below differ from those in the screen. Calls follow the shape of the dose curve; as a rule, active = well fitted inhibition curve with a large enough effect; inconclusive = small, poorly fitted or top-dose-only effect, or another doubt; inactive = no such curve, though single readings can be large or run the other way. Potencies of inconclusive entries are left out as doubtful fits.

Experiment: Primary qHTS for delayed death inhibitors of the malarial parasite plastid, 48 hour incubation
Conditions: P. falciparum luciferase growth in erythrocytes; series mostly up to 28.7 µM
Method in brief: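 Luciferase-expressing parasites in RBCs, 2% Hct / 0.1% parasitemia final; RPMI 1640 + 0.5% Albumax; 37 C, 5% CO2, one generation; luminescence read-out, lower signal = inhibition.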
Potency is read from the fitted curve at half-maximal effect; tags tell the direction and shape of the fitted curve.

SMILES	Potency
COc1cccc2sc(N(CCCN(C)C)C(=O)c3ccc(S(=O)(=O)N4CCc5ccccc5C4)cc3)nc12	inconclusive [inhibitor, partial curve, poor fit]
CC(Cc1ccccc1)NC(=S)CN1CCCC1=S (centres undefined)	inactive
COc1cccc(C2CC(c3ccc(C)cc3)=NN2C(=O)c2ccccc2F)c1OC (centres undefined)	active: 5.22 µM
Cc1ccc(C)c(NC(=O)c2ccccc2NS(=O)(=O)c2cc([N+](=O)[O-])ccc2C)c1	inconclusive [inhibitor, single point]
Cc1cc(C)nc(SC2CC(=O)N(c3ccc(Cl)cc3)C2=O)n1 (centres undefined)	inconclusive [inhibitor, full curve, poor fit]
COc1ccc(NC(=O)CN(C)CC(=O)Nc2cccc(S(=O)(=O)N(C)c3ccccc3)c2)cc1	inconclusive [inhibitor, partial curve, poor fit]
Cc1ccc(S(=O)(=O)N(CCC(=O)O)c2ccccc2)cc1	inactive
CC(=O)Nc1ccc(C(=O)Nc2cc(C)on2)cc1	inactive
CCOc1ccccc1C(=O)NCC(=O)NNC(=O)CN(C)S(=O)(=O)c1ccc(Cl)cc1	inactive
CN(c1ccc(C(=O)N2CCN(Cc3ccccc3)CC2)cc1)S(=O)(=O)c1ccc(Cl)cc1	inconclusive [inhibitor, single point]
COc1cc(/C=N/n2cnn(Cc3ccccc3Cl)c2=S)cc(OC)c1OC	inconclusive [inhibitor, single point]
CCOC(=O)C(C)CC(C)C(=O)N1CCOCCN(C(=O)C(C)CC(C)C(=O)OCC)CCOCC1 (centres undefined)	active: 8.28 µM
Cc1cccc(C(=O)N/N=C/c2ccc(OC3CSC3)cc2)c1	inconclusive [inhibitor, single point]
N#C/C(=C\Nc1ccccc1SC(F)(F)F)c1nc(-c2ccccc2)cs1	inconclusive [inhibitor, single point]
CC(C)(C)N1CC(C(=O)Nc2ccc(S(=O)(=O)N3CCCCC3)cc2)CC1=O (centres undefined)	inconclusive [inhibitor, single point]
CCOC(=O)C1(CCOc2ccccc2)CCN(Cc2cnc(C)s2)CC1	inconclusive [inhibitor, single point]
COc1ccc(Cn2c(O)c(C=Nc3ccccc3)c3ccccc3c2=O)cc1	inconclusive [inhibitor, single point]
N#CCN1C(=S)N=C(Nc2cccc(Cl)c2)C12CCCCC2	inconclusive [inhibitor, partial curve, poor fit]
Cc1ccc(NS(=O)(=O)c2ccc(CCC(=O)N3CCCC3)cc2)cc1	inconclusive [inhibitor, partial curve, poor fit]
COc1ccc(NC(=O)Nc2cccc3ccccc23)cc1OC	inconclusive [inhibitor, partial curve]
O=C(c1ccc(Br)c(S(=O)(=O)N2CCCCC2)c1)N1CCCCC1	inconclusive [inhibitor, single point]
CCCCN1Cc2cc(C(=O)c3cc(F)ccc3O)cnc2NC1=O	inconclusive [inhibitor, single point]
Cc1nc2ccccn2c1C(=O)N=Nc1c(O)n(CCC(C)C)c2ccccc12	inconclusive [inhibitor, partial curve, poor fit]

SMILES	Potency
COC(=O)c1c(C(=O)OC)c(-c2ccc(Cl)cc2)n2c1CS(=O)(=O)C2	active: 1.47 µM
COc1cccc(NC(=O)Nc2ccc(Cc3ccncc3)cc2)c1	inactive
CCN(CC)CCCN1C=C2C(=O)C(C)(OC(=O)C3CCCC3)C(=O)C=C2C=C1c1ccsc1 (centres undefined)	active: 10.4 µM
CS(=O)(=O)N1N=C(c2ccc(Br)cc2)CC1c1ccc2c(c1)OCO2 (centres undefined)	inactive
Oc1ccc(N2CCN(C(=S)NCCc3ccccc3)CC2)cc1	inconclusive [inhibitor, partial curve, poor fit]
COc1cccc(-c2cc(N3C(=O)Nc4ccccc4N3O)n[nH]2)c1	inactive
CCn1c(=O)c(C(=O)CN2c3ccccc3CC2C)c(N)n(Cc2ccccc2)c1=O (centres undefined)	inconclusive [inhibitor, single point]
COc1cc(OC)cc(C(=O)N[C@H](C(=O)NCCc2ccc(S(N)(=O)=O)cc2)C(C)C)c1	inactive
Cc1cc(C)n(S(=O)(=O)c2ccccc2[N+](=O)[O-])n1	inconclusive [inhibitor, single point]
CCSc1nc(=S)n(Cc2ccccc2)c(C)c1C(C)=O	inconclusive [inhibitor, single point]
Cc1ccc(NC(=O)Cn2ccc([N+](=O)[O-])n2)cc1Cl	inactive
Cn1c(-c2c(N)n(CCCc3ccccc3)c3nc4ccccc4nc23)nc2ccccc21	inconclusive [inhibitor, partial curve, poor fit]
O=C(NCc1ccc2c(c1)OCO2)c1ccc(C2SCC(=O)N2Cc2ccco2)cc1 (centres undefined)	inconclusive [inhibitor, partial curve]
CCOc1ccc(-c2nc(CN3CCCCC3CCn3cccn3)c(C)o2)cc1 (centres undefined)	inconclusive [inhibitor, single point]
N#C/C(=C\c1ccc(Cl)cc1)c1nc2ccccc2o1	inactive
COc1ccc(N(C(=O)CNC(=O)c2ccco2)C(C(=O)NC2CCCC2)c2ccco2)cc1 (centres undefined)	inactive
Cc1c(O)c(C)c2c(c1O)C(=O)C[C@@H](c1ccccc1)O2	active: 13.1 µM
CCOc1ccc(CCNC(=O)COC(=O)Cc2c[nH]c3ccccc23)cc1OCC	inconclusive [inhibitor, single point]
COC(=O)c1ccc(CSc2nc3c(c(=O)n2-c2ccc(C)cc2)SCC3)o1	inconclusive [inhibitor, partial curve]
Cc1ccc(CN2C(=O)C3CCCN3c3ccc(C#N)cc32)cc1 (centres undefined)	inconclusive [inhibitor, full curve, poor fit]
O=C(NCc1ccco1)c1sc2cc(F)ccc2c1Cl	inactive
CNC(=O)CCN(Cc1ccco1)S(=O)(=O)c1ccc(OC)c(OC)c1	inactive
COc1ccccc1CCNC(=O)C(=O)NCC1OCCN1S(=O)(=O)c1cc(F)ccc1F (centres undefined)	inconclusive [inhibitor, single point]

SMILES	Potency
COc1ccc(N2CCN(C(=O)c3ccccc3F)CC2)c([N+](=O)[O-])c1	inconclusive [inhibitor, single point]
C#CCOCCOCCOCCNc1nc(N2CCN(C(=O)[C@H]([C@@H](C)CC)n3cc(CCCN=C(N)N)nn3)CC2)nc(N2CCN(C(=O)[C@H](C)n3cc(CCCN=C(N)N)nn3)CC2)n1	inconclusive [inhibitor, full curve]
O=S(=O)(Cc1cnc(Cl)s1)c1ccccc1	inactive
COc1ccc(OC)c(NC(=O)C2CCCN(S(=O)(=O)c3ccc(-n4cnnn4)cc3)C2)c1 (centres undefined)	inconclusive [inhibitor, partial curve]
CC(C)(C)n1nnnc1CN(Cc1cccnc1)Cc1ccccc1Cl	active: 14.7 µM
CCC1CN(C(=O)N2CCC(C(=O)NCCc3ccc(OC)c(OC)c3)CC2)c2ccccc2O1 (centres undefined)	inconclusive [inhibitor, partial curve]
CCN1C(=O)C(CC(=O)Nc2ccc(OC)cc2)N(Cc2cccnc2)C1=S (centres undefined)	inactive
CCNC(=O)Nc1cc(OC)c(OC)cc1C(=O)O	inconclusive [inhibitor, full curve]
O=C(Cn1nnc(-c2ccc3c(c2)OCO3)n1)Nc1ccccc1C(=O)O	inactive
O=C(CCl)N1CCN(S(=O)(=O)c2ccc3c(c2)OCCCO3)CC1	inconclusive [inhibitor, single point]
CCN(Cc1ccccc1)C(c1ccccn1)c1nnnn1C1CCCCC1 (centres undefined)	active: 11.7 µM
CCOC(=O)C1CCCN(c2c(NCCN(CC)c3ccccc3)c(=O)c2=O)C1 (centres undefined)	active: 10.4 µM
NC(=O)C1(N2CCCCC2)CCN(C(=S)Nc2cc(F)cc(F)c2)CC1	inactive
CCN(CCn1cccn1)Cc1cn[nH]c1-c1ccc(OC)cc1F	inactive
COc1ccc(-c2c([C@H]3[C@H]4C=CC[C@@H](C)[C@@H]4C(=O)N3Cc3ccccc3)ccc3ccccc23)cc1	active: 7.38 µM
C=CCc1cc(OC)c(O)c(C(=O)NCCO)c1	inactive
Cc1cc(C)nc(NN=C(c2ccccc2)c2ccccc2)n1	inconclusive [inhibitor, single point]
Nc1ccc(NC(=O)CCN2CCOCC2)cc1	inconclusive [inhibitor, full curve]
CC(=O)NC(CC(=O)Nc1ccc(S(=O)(=O)N2CCCCC2)cc1)c1ccccc1 (centres undefined)	inconclusive [inhibitor, single point]
O=C(Cc1ccccn1)c1ccc(F)cc1	inconclusive [inhibitor, partial curve, poor fit]
Cn1c(CNC(=O)CCNC(=O)c2cccc(Cl)c2)cc(=O)n(C)c1=O	inactive
CCOc1cc(CNCCc2ccc(S(N)(=O)=O)cc2)ccc1OCc1ccccc1	inconclusive [inhibitor, partial curve, poor fit]
CCOc1ccc(Cl)cc1CSc1ncn[nH]1	inconclusive [inhibitor, single point]
